Out of some 410,000 compounds screened, about 6,400 (1.6%) were called active. The shares of active, inactive and inconclusive entries below differ from those in the screen. Calls come from the whole dose curve; as a rule, active = well fitted inhibition curve with a large enough effect; inconclusive = small, poorly fitted or top-dose-only effect; inactive = no such curve, though single readings can be large or run the other way. No potency is given beside an inconclusive call; the fits are too rough.
These compounds were tested against Glucagon-like peptide 1 receptor (Homo sapiens) (UniProt P43220) (assay: qHTS of GLP-1 Receptor Inverse Agonists (Inhibition Mode)). Conditions: HEK293 GLP-1R CRE-luciferase, luminescence, 24 h, GLP-1R form is constitutively active; activity change, negative = inhibition: at 38.3 µM (top of the series) unless noted.
Chain of UniProt P43220 (P43220 whole entry, looked up): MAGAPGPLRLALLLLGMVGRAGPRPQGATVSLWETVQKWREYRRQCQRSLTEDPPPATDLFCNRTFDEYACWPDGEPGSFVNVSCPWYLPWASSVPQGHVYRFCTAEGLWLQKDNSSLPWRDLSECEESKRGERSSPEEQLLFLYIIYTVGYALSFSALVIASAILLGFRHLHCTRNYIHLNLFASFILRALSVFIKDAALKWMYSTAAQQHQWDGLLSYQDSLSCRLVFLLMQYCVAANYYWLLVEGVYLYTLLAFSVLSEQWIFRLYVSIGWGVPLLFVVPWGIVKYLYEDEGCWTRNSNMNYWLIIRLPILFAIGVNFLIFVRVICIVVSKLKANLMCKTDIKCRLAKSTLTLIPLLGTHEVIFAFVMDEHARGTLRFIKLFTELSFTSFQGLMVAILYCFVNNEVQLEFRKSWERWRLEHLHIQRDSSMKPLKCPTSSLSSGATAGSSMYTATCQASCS
Method in brief: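 Seeding at 200 cells/uL, 12 h culture, 24 hr compound treatment, then luciferase reagent and a luminescence read; cells are HEK293 stably expressing a constitutively active GLP-1R plus cAMP-responsive luciferase.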
% is set by controls: 0 for no effect and ±100 for the full control effect; potency is the fitted concentration of half-maximal effect; tags give direction and shape of the fitted curve.
Note: nearly all actives have a fitted effect of over 55% in size.

| SMILES | Potency | activity change, negative = inhibition |
| --- | --- | --- |
| CCOC(=O)c1nc(C)nc(Sc2n[nH]c(-c3ccc(C(C)(C)C)cc3)n2)c1C | active: 10 µM |  |
| COc1cc(CNCCN2CCOCC2)ccc1OCc1ccccc1Cl | inconclusive [inhibitor, partial curve, poor fit] |  |
| Brc1cc2ccccc2[n+](Cc2ccccc2)c1 | inconclusive [inhibitor, single point] |  |
| O=C(Nc1ccccc1)N1CCN2C(=O)c3ccccc3C12c1ccccc1 (centres undefined) | inconclusive [inhibitor, partial curve, poor fit] |  |
| CC(C)C(=O)NC(=S)Nc1ccc(S(=O)(=O)N(C)Cc2ccccc2)cc1 | inconclusive [inhibitor, partial curve, poor fit] |  |
| Cc1ccc(C(=O)NC(=S)Nc2ccc(CN3CCCCC3)cc2)c(C)c1 | inconclusive [inhibitor, partial curve] |  |
| Cc1cccc(OCC(=O)N(Cc2ccccc2)c2c(N)n(Cc3ccccc3)c(=O)[nH]c2=O)c1 | inconclusive [inhibitor, partial curve, poor fit] |  |
| CCOC(=O)C1(Cc2cccc(OC)c2)CCCN(Cc2cc(C(C)C)n[nH]2)C1 (centres undefined) | inconclusive [inhibitor, full curve, poor fit] |  |
| COc1ccc(-c2cn(-c3ccc(OC)cc3)c3[n+]2-c2ccccc2CC3)cc1 | inconclusive [inhibitor, full curve, poor fit] |  |
| CN(C)CCCn1c(=O)n(Cc2ccco2)c(=O)c2c3c(sc21)CCCCC3 | active: 4.47 µM |  |
| O=C(Nc1ccc(F)c(Cl)c1)c1cc(C2CCCCN2C(=O)c2ccc3c(c2)CCO3)on1 (centres undefined) | inconclusive [inhibitor, single point] |  |
| Cn1cc(C(=O)NCc2ccc(Cl)cc2)c(=O)c2cc(S(=O)(=O)N3CCCCCC3)ccc21 |  | inactive: 3.23% |
| CS(=O)(=O)N(CC(=O)N/N=C/c1cccc2c1OCCO2)c1ccccc1Br |  | inactive: 2.15% |
| Cc1ccc2nc3c(c(Nc4ccc5c(c4)OCCO5)c2c1)CCC3 | inconclusive [inhibitor, partial curve, poor fit] |  |
| CCOc1ccccc1N1C(=O)CC(Sc2ncccc2C(=O)O)C1=O (centres undefined) |  | inactive: 1.96% |
| CCOC(=O)N1CCC(NC(=O)CS(=O)Cc2nc(-c3ccccc3C)oc2C)CC1 (centres undefined) | inconclusive [inhibitor, partial curve, poor fit] |  |
| COc1ccc([C@H]2CC(=O)C=C(c3ccc(CNC(=O)OC(C)(C)C)cc3)C2)cc1 | inconclusive [inhibitor, single point] |  |
| Cc1cccc(NC(=S)N/C(=N/S(=O)(=O)c2ccccc2)c2ccccc2)c1 | inconclusive [inhibitor, partial curve] |  |
| CN(c1ccccc1)S(=O)(=O)c1ccc(C(=O)OCC(=O)NCc2cccs2)cc1 | inconclusive [inhibitor, full curve] |  |
| Fc1ccc(CNc2ncnc3c2cnn3-c2ccccc2)cc1 | inconclusive [inhibitor, full curve, poor fit] |  |
| CC(CCc1ccccc1)NC(=O)/C=C/c1ccccc1 (centres undefined) | inconclusive [inhibitor, partial curve, poor fit] |  |
| CCN(C(=O)CCCCC(=O)N(CC)c1ccccc1)c1ccccc1 | inconclusive [inhibitor, partial curve, poor fit] |  |

| SMILES | Potency | activity change, negative = inhibition |
| --- | --- | --- |
| Cc1ccc(O)c(C(=O)c2cc(C#N)c(=O)n(-c3c(C)n(C)n(-c4ccccc4)c3=O)c2)c1 |  | inactive: 0% |
| COc1ccc(C(=O)C2CCCN(C/C=C/c3ccccc3OC)C2)c(OC)c1 (centres undefined) | inconclusive [inhibitor, partial curve, poor fit] |  |
| Cc1ccc2cc3c(NC(=O)C(C)C)nn(C)c3nc2c1 |  | inactive: 45.1% |
| COc1ccc(Cn2nnnc2C(C(C)C)N(Cc2ccco2)Cc2cccs2)cc1 (centres undefined) | inconclusive [inhibitor, single point] |  |
| Cc1ccc(NS(=O)(=O)c2cc([N+](=O)[O-])ccc2NNC(=S)Nc2cccc(Cl)c2)c(C)c1 | inconclusive [inhibitor, single point] |  |
| CCN(CC(=O)NCc1ccc(F)cc1)C(=O)Cc1c(F)cccc1Cl | inconclusive [inhibitor, single point] |  |
| CCOC(=O)c1sc(=S)n(-c2ccccc2Cl)c1C | inconclusive [inhibitor, single point] |  |
| FC(F)(F)c1cnc2c(c1)Nc1ccccc1S2 | inconclusive [inhibitor, single point] |  |
| CCOc1ccc(CN(C)C(C)C(=O)NCCc2ccc(F)cc2)cc1 (centres undefined) | inconclusive [inhibitor, single point] |  |
| O=S(=O)(c1ccc(Cl)cc1)N1CCCc2ccccc21 | inconclusive [inhibitor, single point] |  |
| COc1cc(C)c(NC(=O)c2cc(C3CC3)nc3c2cnn3C(C)C)cc1OC | inconclusive [inhibitor, single point] |  |
| COc1ccc(C(=O)Nc2nc3ccccc3[nH]2)cc1 | inconclusive [inhibitor, partial curve, poor fit] |  |
| O=C(NC1CCCCC1)c1c[nH]c2ccc(S(=O)(=O)Nc3ccccc3F)cc2c1=O | inconclusive [inhibitor, single point] |  |
| CCOC(=O)c1ccc(NC(=O)c2c(NCc3sccc3C)sc3c2CCCCC3)cc1 |  | inactive: 9.22% |
| O=C1NC(c2ccc3ccccc3c2)Nc2ccccc21 (centres undefined) | inconclusive [inhibitor, full curve, poor fit] |  |
| COc1ccc(C[C@H]2CN3C(=NC[C@H]3C)N2CCNC(=O)c2ccc(C)c(Br)c2)cc1 | inconclusive [inhibitor, partial curve, poor fit] |  |
| CN1CCc2c(sc(NC(=O)c3cc(Cl)sc3Cl)c2C(N)=O)C1 | inconclusive [inhibitor, single point] |  |
| COc1ccc(NC(=O)CSc2nnc(NC(=O)Nc3ccccc3)s2)c(OC)c1 |  | inactive: -9.2% |
| Cc1cc([N+](=O)[O-])ccc1NC(=O)c1ccco1 |  | inactive: 42.2% |
| CCOC(=O)C(=CNNc1ccccc1)C(=O)OCC | inconclusive [inhibitor, partial curve, poor fit] |  |
| CCOC(=O)NNc1ccccc1 | inconclusive [inhibitor, partial curve, poor fit] |  |
| COc1cc(/C=C/c2ccc3cccc([N+](=O)[O-])c3n2)ccc1OCC#N |  | inactive: 47.8% |

| SMILES | Potency | activity change, negative = inhibition |
| --- | --- | --- |
| CC1(Cc2ccccc2OC(F)(F)F)C(=O)Nc2ccc(-c3ccsc3)cc21 (centres undefined) | inconclusive [inhibitor, partial curve, poor fit] |  |
| CCN(Cc1ccccc1)C(=O)COC(=O)c1cc(S(=O)(=O)Nc2ccccc2OC)ccc1O | inconclusive [inhibitor, single point] |  |
| CCn1cc2nc(SCc3ccc(C)cc3)n(CCc3ccccc3)c(=O)c2n1 | inconclusive [inhibitor, partial curve, poor fit] |  |
| Cc1ccc(OCC(=O)Nc2ccc(Cl)c(-c3nc4ccccc4[nH]3)c2)cc1C | inconclusive [inhibitor, partial curve, poor fit] |  |
| Cc1ccc(SCC(=O)NCCc2ccccc2)cc1 | inconclusive [inhibitor, single point] |  |
| O=C(Nc1ccc2nc(C3CC3)n(Cc3ccc(F)cc3)c(=O)c2c1)c1ccco1 | inconclusive [inhibitor, single point] |  |
| COc1ccc(S(=O)(=O)N(CC(=O)N(C)Cc2ccccc2)c2ccc(Cl)cc2)cc1 | inconclusive [inhibitor, single point] |  |
| COc1cc2c(cc1OC)CN(C(=O)CCC(=O)c1ccc(F)cc1)CC2 | inconclusive [inhibitor, single point] |  |
| O=C(NC(=S)Nc1nc2c(s1)CCCC2)c1ccccc1 | inconclusive [inhibitor, full curve, poor fit] |  |
| CC(=O)N1CCCC(C(=O)c2ccc3c4c(cccc24)CC3)C1 (centres undefined) |  | inactive: 18.4% |
| COc1ccc(C)cc1NC(=O)C1CC(=O)N(CCc2ccccc2)C1 (centres undefined) |  | inactive: -15.1% |
| Cc1cccc(OCC(=O)Nc2ccc(-c3nc4cc(C)ccc4o3)c(O)c2)c1 |  | inactive: 34.2% |
| Cc1csc(-c2nc3ccccc3n2C(C)c2nc3ccccc3[nH]2)c1 (centres undefined) | inconclusive [inhibitor, single point] |  |
| Cn1ncc2cc3c(Nc4ccc(Cl)cc4)cccc3nc21 | inconclusive [inhibitor, single point] |  |
| O=C(CN1C(=O)C2CCCCC2C1=O)Nc1nc(-c2ccccn2)cs1 (centres undefined) | inconclusive [inhibitor, single point] |  |
| C=CCc1cccc(/C=N/NC(=O)C(C)Nc2ccc(C)cc2)c1O (centres undefined) | inconclusive [inhibitor, partial curve, poor fit] |  |
| CC1CCCCC1NC(=O)CCCn1c(=S)[nH]c2ccsc2c1=O (centres undefined) |  | inactive: 0.255% |
| O=C(COc1ccc(Br)cc1)N(Cc1cccs1)C1CCS(=O)(=O)C1 (centres undefined) | inconclusive [inhibitor, single point] |  |
| CC1(C)CC2CC(C)(CN2C(=O)COC(=O)c2cccc(O)c2)C1 (centres undefined) | inconclusive [inhibitor, partial curve, poor fit] |  |
| CCOC(=O)C1(Cc2cccc(OC)c2)CCN(Cc2cccc(O)c2)CC1 | active: 11.2 µM |  |

— PubChem BioAssay AID624417 (National Center for Advancing Translational Sciences (NCATS), 2012)
